Data on one substance can be found in article PMC5739749.

Amino acid sequences for entries named in this document (tags omitted).
UniProt P54098: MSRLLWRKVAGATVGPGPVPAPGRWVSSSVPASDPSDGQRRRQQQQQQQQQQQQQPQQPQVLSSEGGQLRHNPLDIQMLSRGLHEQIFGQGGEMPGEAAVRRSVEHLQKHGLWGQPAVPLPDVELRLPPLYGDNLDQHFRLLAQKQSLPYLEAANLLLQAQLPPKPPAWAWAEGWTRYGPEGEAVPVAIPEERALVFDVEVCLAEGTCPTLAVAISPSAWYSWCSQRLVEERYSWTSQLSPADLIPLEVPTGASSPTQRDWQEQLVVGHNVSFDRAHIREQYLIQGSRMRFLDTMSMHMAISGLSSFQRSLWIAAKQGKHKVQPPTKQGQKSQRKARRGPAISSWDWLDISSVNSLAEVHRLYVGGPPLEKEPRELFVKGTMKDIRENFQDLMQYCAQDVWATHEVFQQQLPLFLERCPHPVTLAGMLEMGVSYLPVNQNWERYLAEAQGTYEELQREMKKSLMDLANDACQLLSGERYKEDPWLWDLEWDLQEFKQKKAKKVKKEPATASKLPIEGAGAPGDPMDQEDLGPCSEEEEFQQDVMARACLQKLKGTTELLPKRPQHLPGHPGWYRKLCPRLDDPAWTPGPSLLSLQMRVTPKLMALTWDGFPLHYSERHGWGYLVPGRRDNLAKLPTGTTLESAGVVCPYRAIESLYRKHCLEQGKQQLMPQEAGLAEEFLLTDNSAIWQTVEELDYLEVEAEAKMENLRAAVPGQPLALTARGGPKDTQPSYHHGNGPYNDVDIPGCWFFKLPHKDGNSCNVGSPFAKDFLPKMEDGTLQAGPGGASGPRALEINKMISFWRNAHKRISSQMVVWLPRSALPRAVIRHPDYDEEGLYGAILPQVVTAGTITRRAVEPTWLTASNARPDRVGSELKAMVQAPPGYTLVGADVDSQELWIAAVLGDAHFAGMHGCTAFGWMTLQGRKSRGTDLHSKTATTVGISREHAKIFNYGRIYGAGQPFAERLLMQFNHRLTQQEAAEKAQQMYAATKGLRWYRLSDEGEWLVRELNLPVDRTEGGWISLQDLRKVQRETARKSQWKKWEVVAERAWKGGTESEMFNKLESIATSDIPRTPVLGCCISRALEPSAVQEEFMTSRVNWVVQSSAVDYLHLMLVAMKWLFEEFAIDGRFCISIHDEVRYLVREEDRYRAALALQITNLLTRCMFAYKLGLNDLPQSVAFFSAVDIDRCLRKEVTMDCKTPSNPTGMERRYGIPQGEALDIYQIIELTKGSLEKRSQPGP

Common to all, as to test: co-IP; 293T cells co-transfected; lysed in RIPA buffer; TTC3 immunoprecipitated by Myc antibody (9E10), POLG or Hsp70 by Flag antibody (M2); Protein G beads, 4°C; immunoblot
Test [1] addresses T1, Myc-tagged TTC3 fragment of 231∼650 residues (human) (UniProt P53804).
T1 sequence: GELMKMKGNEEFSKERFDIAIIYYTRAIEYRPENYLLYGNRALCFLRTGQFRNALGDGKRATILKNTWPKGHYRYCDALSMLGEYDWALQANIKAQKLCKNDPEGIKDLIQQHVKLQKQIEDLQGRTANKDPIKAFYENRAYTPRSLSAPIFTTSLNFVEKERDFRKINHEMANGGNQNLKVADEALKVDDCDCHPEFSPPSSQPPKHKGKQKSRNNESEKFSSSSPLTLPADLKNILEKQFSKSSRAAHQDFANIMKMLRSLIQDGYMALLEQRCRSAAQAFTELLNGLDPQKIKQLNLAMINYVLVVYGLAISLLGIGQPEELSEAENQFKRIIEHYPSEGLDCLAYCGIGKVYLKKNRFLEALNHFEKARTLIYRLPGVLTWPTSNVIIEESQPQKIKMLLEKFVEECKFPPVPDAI

Test [2] addresses Myc-tagged TTC3Δ230 (deletion of N-terminal 1∼230 residues) (human) (UniProt P53804).
The target of test [3] is T2, Myc-tagged TTC3Δ650 (TTC3 that lacks the N-terminal 1∼650 residues) (human) (UniProt P53804).
T2 sequence: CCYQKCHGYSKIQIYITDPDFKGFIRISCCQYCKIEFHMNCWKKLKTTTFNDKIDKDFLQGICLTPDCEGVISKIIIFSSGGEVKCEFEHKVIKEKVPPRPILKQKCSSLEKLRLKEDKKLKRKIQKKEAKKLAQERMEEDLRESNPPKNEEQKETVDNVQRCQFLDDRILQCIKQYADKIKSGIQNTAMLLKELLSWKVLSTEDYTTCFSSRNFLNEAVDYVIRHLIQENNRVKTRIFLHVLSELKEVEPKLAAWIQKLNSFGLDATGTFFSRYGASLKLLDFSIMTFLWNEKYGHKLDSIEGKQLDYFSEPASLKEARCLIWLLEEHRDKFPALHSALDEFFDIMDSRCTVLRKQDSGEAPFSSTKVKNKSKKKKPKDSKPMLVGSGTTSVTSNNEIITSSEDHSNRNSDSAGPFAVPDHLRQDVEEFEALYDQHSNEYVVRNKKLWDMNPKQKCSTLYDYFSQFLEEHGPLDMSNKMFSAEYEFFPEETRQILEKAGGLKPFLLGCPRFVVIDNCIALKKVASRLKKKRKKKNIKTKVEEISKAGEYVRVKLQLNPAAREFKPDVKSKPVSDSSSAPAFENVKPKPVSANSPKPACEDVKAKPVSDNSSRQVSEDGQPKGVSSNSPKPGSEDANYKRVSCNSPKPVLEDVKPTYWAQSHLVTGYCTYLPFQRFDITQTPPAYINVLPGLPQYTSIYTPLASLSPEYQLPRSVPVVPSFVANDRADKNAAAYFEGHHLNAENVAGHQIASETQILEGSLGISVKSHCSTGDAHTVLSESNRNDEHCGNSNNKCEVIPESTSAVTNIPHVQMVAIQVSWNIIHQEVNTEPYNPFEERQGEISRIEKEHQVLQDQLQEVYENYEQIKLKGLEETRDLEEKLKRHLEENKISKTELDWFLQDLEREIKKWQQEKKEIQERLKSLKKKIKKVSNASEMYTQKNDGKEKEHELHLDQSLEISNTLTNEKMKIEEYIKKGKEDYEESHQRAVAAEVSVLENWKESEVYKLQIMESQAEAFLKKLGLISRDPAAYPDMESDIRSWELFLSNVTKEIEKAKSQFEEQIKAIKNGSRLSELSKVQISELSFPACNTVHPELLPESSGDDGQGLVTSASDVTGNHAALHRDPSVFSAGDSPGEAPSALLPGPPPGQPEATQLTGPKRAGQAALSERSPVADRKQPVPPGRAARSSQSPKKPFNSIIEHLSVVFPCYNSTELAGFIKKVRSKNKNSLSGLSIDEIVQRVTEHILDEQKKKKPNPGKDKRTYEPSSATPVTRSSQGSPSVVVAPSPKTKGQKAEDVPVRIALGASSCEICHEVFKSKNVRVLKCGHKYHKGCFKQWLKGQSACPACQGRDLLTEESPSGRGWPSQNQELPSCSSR

The target of test [4] is T3, Myc-tagged TTC3 N-terminal fragment of 1∼230 residues (human) (UniProt P53804).
T3 sequence: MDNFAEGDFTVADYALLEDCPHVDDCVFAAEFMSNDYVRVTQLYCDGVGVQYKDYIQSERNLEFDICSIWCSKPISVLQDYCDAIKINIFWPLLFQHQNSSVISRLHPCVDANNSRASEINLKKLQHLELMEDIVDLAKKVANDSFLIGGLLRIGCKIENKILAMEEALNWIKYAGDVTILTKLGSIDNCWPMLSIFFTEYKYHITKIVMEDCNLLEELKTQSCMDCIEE

Test [5] concerns the target Myc-tagged wild-type full-length TTC3 (pCMV-Myc-TTC3) (human) (UniProt P53804).

No constants are given. Whether binding was seen depends on the method and setting. In cells and extracts the contact can be indirect. Some binding calls cover weakened binding; strength is not graded here. For some assays here: Where a sequence is shown, tags or fusion partners need not be part of it.

On to “3xFlag-tagged full-length POLG (p3xFLAG-CMV10) (from UniProt P54098 1-1239)”, for which the binding entry in test [1] is listed as “binds”; in test [2], “binds”; in test [3] it was “no binding”; in test [4], “binds”; in test [5], “binds”.
